Source: the supplement of paper PMC10126150
Values marked as one replicate rest on one cluster of the flow cell; about a third of the high ones do not repeat.

Tested on: ATP
Experiment: switch fluorescence ratio, 500 uM ATP over buffer (Cy3 cluster intensity, sum of 5 cycles each) (fold (ratio)); higher = stronger signal-on switching upon ATP binding; sequences stand for … in TCGTCGGCAGCGTCAGATGTGTATAAGAGACAGTTTTTTTTTTTTTTTTTTTTTTTTT…TC
Conditions: aptamer strand: ATP DNA aptamer (quencher-CACCTGGGGGAGTATTGCGGAGGAAGG + anchor), 100 nM annealed; ATP concentration: 500 uM; one replicate
Outline: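 Five buffer/ATP imaging cycles were run on Cy3-labelled switching-strand clusters on a modified Illumina MiSeq flow-cell, with NaOH stripping and re-annealing between cycles. In each cycle, clusters annealed to 100 nM quencher-labelled ATP aptamer were imaged in selection buffer, then after 15 min with 500 uM ATP at 22 °C. Per cluster, the fluorescence ratio is summed target-cycle over summed buffer-cycle Cy3 intensity, averaged per switch-domain sequence. Only clusters within 100-1000 RFU were kept.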
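Also: ATP exposure 15 min at 22 °C before imaging.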

GAACGTAGTG gave a switch fluorescence ratio of 1.04.

Work on TCTCACGCAC yielded a switch fluorescence ratio of 2.38.

In the case of GGGAATTCAA, the switch fluorescence ratio is reported as 0.99.

CAGCGTCATG showed a switch fluorescence ratio of 1.02.

In the case of TGTAATTGGC, the switch fluorescence ratio is reported as 1.04.

With CGGATATCCC the switch fluorescence ratio was 0.972.

CGGTAGCCCT showed a switch fluorescence ratio of 1.

TACCCGGGCG gave a switch fluorescence ratio of 1.01.

ACTAAGAAGT was tested, and the switch fluorescence ratio was 0.999.

With TCGCGTGCCT the switch fluorescence ratio was 0.941.

With TAGCATCGTC the switch fluorescence ratio was 0.975.

For TAAAGGCGT, the switch fluorescence ratio was 1.03.

For AGTTGAAAAT, the switch fluorescence ratio was 0.945.

ATTACCCCCG gave a switch fluorescence ratio of 1.38.

CAATAAACAC was tested, and the switch fluorescence ratio was 1.03.

CATCT gave a switch fluorescence ratio of 0.983.

TGATCGGACC showed a switch fluorescence ratio of 1.05.

In the case of AAGAAAAGTA, the switch fluorescence ratio is reported as 1.03.

GGTTCTTGCC showed a switch fluorescence ratio of 0.971.

TGGAGTGGTG showed a switch fluorescence ratio of 0.999.

Work on ATAGCGTAAT yielded a switch fluorescence ratio of 1.01.

CAATCAGATC showed a switch fluorescence ratio of 1.02.

CAAGGCACAC showed a switch fluorescence ratio of 1.37.

CTAGTCAATA showed a switch fluorescence ratio of 1.33.

In the case of ATGCTAGGGG, the switch fluorescence ratio is reported as 1.01.

For ACTTCGATCT, the switch fluorescence ratio was 1.07.

TTCAACGACC showed a switch fluorescence ratio of 1.14.

GCGTCCTTTC gave a switch fluorescence ratio of 1.12.

TCATACAGCG was tested, and the switch fluorescence ratio was 0.966.

In the case of TAAAGGCTGT, the switch fluorescence ratio is reported as 1.02.

GACAAAGGCT showed a switch fluorescence ratio of 1.01.

TGCCTTAGGT gave a switch fluorescence ratio of 1.01.

CAGGATCGTT showed a switch fluorescence ratio of 1.

With CGGTACAAAC the switch fluorescence ratio was 1.15.

AGAAGTGGGC gave a switch fluorescence ratio of 1.03.

In the case of ACTAACTTAT, the switch fluorescence ratio is reported as 1.11.

AGCGCTCGG gave a switch fluorescence ratio of 0.979.

AAACATAGTT was tested, and the switch fluorescence ratio was 1.02.

For GAGTGCACGG, the switch fluorescence ratio was 1.03.

With GCGAGGCATG the switch fluorescence ratio was 1.19.

Work on AACGGAGCAT yielded a switch fluorescence ratio of 3.76.

Sequence GATTGGTAT has a switch fluorescence ratio of 0.974.

Work on TGAGATGTTA yielded a switch fluorescence ratio of 1.12.

Sequence CAGTAACGGG has a switch fluorescence ratio of 1.07.

ACTTGAGTGG was tested, and the switch fluorescence ratio was 0.975.

TTCAAACCCC was tested, and the switch fluorescence ratio was 1.17.

CGCCAATAAT was tested, and the switch fluorescence ratio was 1.87.

Sequence ATAGGTCCTG has a switch fluorescence ratio of 1.01.

AGCAAAAAAA gave a switch fluorescence ratio of 0.997.

ATCTGACTAA showed a switch fluorescence ratio of 0.997.

Work on TTGCCGGCTT yielded a switch fluorescence ratio of 1.02.

With GATATTGCC the switch fluorescence ratio was 0.953.

TCGATGGTGC gave a switch fluorescence ratio of 0.974.

Work on TGGTCCGTAA yielded a switch fluorescence ratio of 1.56.

For CGTGAAACTT, the switch fluorescence ratio was 1.01.

In the case of AGAAAGGCCA, the switch fluorescence ratio is reported as 1.03.

TTGTGAGAGA gave a switch fluorescence ratio of 1.03.

Work on AAAAAGCGAG yielded a switch fluorescence ratio of 1.01.

TATAAAGTAG gave a switch fluorescence ratio of 1.05.

Sequence GGAAGGGGAC has a switch fluorescence ratio of 0.997.

GTAAGAATGT gave a switch fluorescence ratio of 1.04.

Work on TTTGCGCGCT yielded a switch fluorescence ratio of 1.

TAGCGTAATG gave a switch fluorescence ratio of 0.98.

Sequence AAGCTTTAAC has a switch fluorescence ratio of 1.05.

AGCAAGATAA was tested, and the switch fluorescence ratio was 1.12.

In the case of TGTTTGTAAC, the switch fluorescence ratio is reported as 0.985.

GAGTAAGACC showed a switch fluorescence ratio of 1.05.

CGAAAATGAT was tested, and the switch fluorescence ratio was 0.986.

For TGGTCCAACG, the switch fluorescence ratio was 0.991.

TTCTCACCAA was tested, and the switch fluorescence ratio was 1.21.

AGCCAGCGTC was tested, and the switch fluorescence ratio was 0.981.

With ACGCTAGGCA the switch fluorescence ratio was 1.11.

AAAATAGT was tested, and the switch fluorescence ratio was 0.991.

For CGCAGGGGCG, the switch fluorescence ratio was 0.982.

Work on ACGGGGTCGT yielded a switch fluorescence ratio of 1.02.

AGAATCTCCA showed a switch fluorescence ratio of 1.03.

In the case of ATGTTGATTA, the switch fluorescence ratio is reported as 0.992.

Work on GCTTGTGTCA yielded a switch fluorescence ratio of 0.994.

With TGAGATTTTC the switch fluorescence ratio was 1.09.

TCATACAGGG showed a switch fluorescence ratio of 1.02.

Work on GGGACGTCGC yielded a switch fluorescence ratio of 1.06.

For CATTTGGCTT, the switch fluorescence ratio was 1.02.

For TTCCCCGCGT, the switch fluorescence ratio was 4.65.

In the case of CCCGTTATAG, the switch fluorescence ratio is reported as 2.79.

ACACTTTTCT was tested, and the switch fluorescence ratio was 1.02.

CGGTATGTGG gave a switch fluorescence ratio of 1.02.

Work on TACCGTTTGT yielded a switch fluorescence ratio of 1.04.

AGTGCACTT showed a switch fluorescence ratio of 0.998.

Work on ATATGTATAA yielded a switch fluorescence ratio of 1.

TAGTTGCTTC showed a switch fluorescence ratio of 0.976.

With ACGAGCGGGG the switch fluorescence ratio was 1.04.

With GTTGCGTTGT the switch fluorescence ratio was 0.948.

With ACGCGAATCC the switch fluorescence ratio was 1.59.

TGTTAGCTTC was tested, and the switch fluorescence ratio was 1.02.

In the case of TGGTTTTTCA, the switch fluorescence ratio is reported as 1.

With ACTTACTCCT the switch fluorescence ratio was 1.47.

With CCACTGTGAG the switch fluorescence ratio was 1.08.

Work on TTTAAGCTTC yielded a switch fluorescence ratio of 1.01.

With TCGAATGAGG the switch fluorescence ratio was 1.03.

With CTACCGTGTC the switch fluorescence ratio was 1.04.

GGGGGGGC was tested, and the switch fluorescence ratio was 1.11.

ATAACGAATC was tested, and the switch fluorescence ratio was 1.04.

AGAGCTTATC gave a switch fluorescence ratio of 1.05.

For AAGGTGGTAT, the switch fluorescence ratio was 1.02.

With GGGTATACAT the switch fluorescence ratio was 1.05.

ACTCTGTTGT gave a switch fluorescence ratio of 1.02.

CGCGCCAGGG showed a switch fluorescence ratio of 1.21.

For TGGCTCGAAT, the switch fluorescence ratio was 0.994.

GGTGCACACG was tested, and the switch fluorescence ratio was 0.969.

Work on AAAGGTAGGT yielded a switch fluorescence ratio of 0.997.

In the case of CTAAGCATGA, the switch fluorescence ratio is reported as 1.08.

Work on TCAATGCGGA yielded a switch fluorescence ratio of 0.998.

In the case of AAGACGTGGG, the switch fluorescence ratio is reported as 0.983.

With GTGGAGCTGG the switch fluorescence ratio was 0.986.

GGCTAACTTA gave a switch fluorescence ratio of 1.04.

For GCTAATGATC, the switch fluorescence ratio was 1.03.

With ACAGGACATT the switch fluorescence ratio was 1.06.

TGACTGCCAG was tested, and the switch fluorescence ratio was 0.981.

In the case of CTCCTTTCTC, the switch fluorescence ratio is reported as 1.43.

Work on AACGCTTAAT yielded a switch fluorescence ratio of 1.02.

TCGAAGAGGG was tested, and the switch fluorescence ratio was 0.973.

Sequence GCCAAGCAAT has a switch fluorescence ratio of 1.88.

Work on CACTGGGAGA yielded a switch fluorescence ratio of 1.02.

Sequence GCGCAGAAGT has a switch fluorescence ratio of 1.09.

Sequence CCGTTGTTGC has a switch fluorescence ratio of 1.18.

With TTTTCGCGCG the switch fluorescence ratio was 0.982.

CAAGGTCTGT was tested, and the switch fluorescence ratio was 0.998.

In the case of TCAAGACGAT, the switch fluorescence ratio is reported as 1.

Work on TAATTGAGTT yielded a switch fluorescence ratio of 0.979.

GATCCGTCAC showed a switch fluorescence ratio of 1.32.

In the case of CCGAGTCATA, the switch fluorescence ratio is reported as 4.19.

In the case of ATCTGATGCA, the switch fluorescence ratio is reported as 1.06.

Work on CGCGTTGTCT yielded a switch fluorescence ratio of 0.999.

TTATAGTTGT gave a switch fluorescence ratio of 0.988.

In the case of GATGATGTAG, the switch fluorescence ratio is reported as 0.996.

In the case of GCACAACACA, the switch fluorescence ratio is reported as 1.22.

For ACGATCCCCG, the switch fluorescence ratio was 1.44.

With CTGTTGGAA the switch fluorescence ratio was 0.978.

ATTTAGAGCG was tested, and the switch fluorescence ratio was 0.979.

Sequence CAGTTAAATA has a switch fluorescence ratio of 0.993.

In the case of ATATACGGCC, the switch fluorescence ratio is reported as 1.05.

Work on CGAGGGGTGT yielded a switch fluorescence ratio of 0.992.

For GGATTATGCT, the switch fluorescence ratio was 1.03.

In the case of TCGGGGGATC, the switch fluorescence ratio is reported as 0.989.

Work on AATCCGGGCG yielded a switch fluorescence ratio of 1.01.

With CGTGCAGTGC the switch fluorescence ratio was 2.29.

AGTCTGCACC gave a switch fluorescence ratio of 1.19.

Sequence AACGGATTCC has a switch fluorescence ratio of 1.05.

For GTAGCGTGCT, the switch fluorescence ratio was 0.994.

With TGCTATAACG the switch fluorescence ratio was 0.962.

Work on GGGCATCCG yielded a switch fluorescence ratio of 1.01.

CATGATCGTT showed a switch fluorescence ratio of 0.956.

Sequence ATGGCACTGA has a switch fluorescence ratio of 1.04.
